According to publication PMC12136788:
This is one part of the list.

T1: UNK ZnF1-3 (human, UniProt Q9C0B0 31-174)
T1 sequence: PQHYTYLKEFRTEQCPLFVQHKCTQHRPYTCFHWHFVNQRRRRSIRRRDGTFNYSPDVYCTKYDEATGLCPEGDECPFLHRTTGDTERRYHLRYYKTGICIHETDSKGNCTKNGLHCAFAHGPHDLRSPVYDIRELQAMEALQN

B1: 54676041_54676254_540_CDS_ENSG00000135486_ENST00000330752|human|control|control (ssRNA)
RNA: GGGAGUUCUACAGUCCGACGAUCAGCACUAGCCAUCUCUUGCUUUGACAGGGCUUUUCUAACUUCACAGUUGUGGCCAUUCACAGUAUGGUAUUUCUGAAUGACAAUCUUAUCCACGGAGUCAUGGUCGUCAAAGGUUACAAACAACAGAGGAUUGAGCAUCA
B2: chr2:202488911:202488912:-_ENSG00000155755_ENST00000286196|hu_mus|hu_hu_hu_mus_False|8_108 (ssRNA)
RNA: GGGAGUUCUACAGUCCGACGAUCAUUUAACAUUUUUUCAUAAUCUCCAGUAGCAUUUCAGCAUUAUGUAACAAAAGCUCAAUUGUAAAUACAUGUAUCUUAUAAAAAUACACUUAAAAACACGAGUAAAAAUGGGAGGCGCCACAACAGAGGAUUGAGCAUCA
B3: chr14:89338683:89338684:+_ENSG00000165533_ENST00000346301|hu_hu|motif|central (ssRNA)
RNA: GGGAGUUCUACAGUCCGACGAUCGUUGUUGUUGUUGACCAGAGCCAGCCUGAAGCACUGAUGGGCCAAAUUUGUAUCUCCGGUUCCCACAGCUACAUGUCCCAAGUUGUACCAGACAUCAGCUGCCUCUUCUUCAUUUUCAGCCAACAGAGGAUUGAGCAUCA
B4: chr7:36506639:36506640:-_ENSMUSG00000043671_ENSMUST00000051377|mus_hu|motif|central (ssRNA)
RNA: GGGAGUUCUACAGUCCGACGAUCGAACAGCACUAAUGCUUGCAUCAGCAUCAUAAAUUGAUUAAAUUGCCAUGUCAGACGGAAGAGAAAAGUUGAUAUGAAAAUGGCAAGAAGUGUCAGCCUUUCAGAAAGAGGCUGUAAGUUCAACAGAGGAUUGAGCAUCA
B5: chr4:107939044:107939045:-_ENSMUSG00000034636_ENSMUST00000043616|mus_hu|motif|central (ssRNA)
RNA: GGGAGUUCUACAGUCCGACGAUCACUGAUAAUGUCUGUAAUCGUGAUAUCAGCAUUCACACCUGUGGCAUCAAGUUCCACGGACUUGUGGUGGCAGAAAGCUUUCCGGAAAGCAACAGCAGAGAUCUUUGCUUUGCGAAUGCACAACAGAGGAUUGAGCAUCA
B6: 90179122_90179242_1308_CDS_ENSG00000171488_ENST00000370454|human|control|control (ssRNA)
RNA: GGGAGUUCUACAGUCCGACGAUCAGCAAAGUCAUUUUUCACAUCUGGAAUAUCAUCAAUUCCAGUCUCCUGACGGACAUACUCAAAGGAAUAUUCCCGUAGAGAACGGUAGAACAGCCAGUAUAAGGUAUAAAGGCACGUCAACAACAGAGGAUUGAGCAUCA
B7: 38556220_38556481_3198_CDS_ENSG00000131747_ENST00000423485|human|control|control (ssRNA)
RNA: GGGAGUUCUACAGUCCGACGAUCUCUUAAUCCAUAAUAUUUAAGUCUGAGUUCAAAAAAGUCUCUUAGAAUAUCCAACACCGUGUCAUAUUUCUUUAAACAGCCUACGUGGUCAAAAAGCACCAUAGAGUUGCAUGUGAGACUCAACAGAGGAUUGAGCAUCA
B8: chr11:95532463:95532464:+_ENSG00000166037_ENST00000540830|hu_hu|motif|central (ssRNA)
RNA: GGGAGUUCUACAGUCCGACGAUCCUUACUUGGGGAGCGUCGUAGAUCACUAUUAAGGAAAGGCUUAUCCGAAGGAUAUACGGCAUAUGGAGAUGAAGAAUGCCGAACCAUGCUUCCAUUAGACCUUGAUGGCUCAGCAAAGCUCAACAGAGGAUUGAGCAUCA
B9: 158550971_158552674_281_CDS_ENSMUSG00000026596_ENSMUST00000166172|mouse|control|control (ssRNA)
RNA: GGGAGUUCUACAGUCCGACGAUCGAUCGCUUCAUUCAGUGCCUGAGAUUCAGCAUCACAGCCAAACGGGCGGUGCAAAACUUCUGGACUACUGCCUCCAGUCUUGUCUCCCUCAAAUCCAUCCUCCACACAGCUGGCAAAGUGCAACAGAGGAUUGAGCAUCA
B10: chr4:122741918:122741919:-_ENSG00000145386_ENST00000274026|hu_hu|FALSE|FALSE (ssRNA)
RNA: GGGAGUUCUACAGUCCGACGAUCGUCUGGCUGUUUCUUCAUGUAACCCACUUUAGGUUUACAUUUAACCUCCAUUUCCCUAAGGUAUGUGUGAAUAUCCUCAUGGUAGUCUGGUACUUCAUUAACACUCACUGGCUUUUCAUCCAACAGAGGAUUGAGCAUCA
B11: chr15:25584193:25584194:-_ENSG00000114062_ENST00000438097|hu_mus|FALSE|FALSE (ssRNA)
RNA: GGGAGUUCUACAGUCCGACGAUCAUGACUACUGUGGUUCACUAUCUUACAGCCUUUUUGUACUGGGAUACUAUUACCAUCAAAUUAUCCCUCUUAUAUUUAUUUUUUAACUUUUUCUUUUUCUUUUUCUUUUUCUUUUUGUUUCAACAGAGGAUUGAGCAUCA
B12: chr7:140404665:140404666:+_ENSG00000090266_ENST00000247866|hu_hu|hu_hu_hu_mus_False|8_8 (ssRNA)
RNA: GGGAGUUCUACAGUCCGACGAUCUGCUCCUACUCGUCCAGAGAGUUUACAGUGUCAGUCCUCGUCAUCAGGAGGGAUUCCCAGUUCUUCAUCUGUCCACUGUGAAGGAUCUGGAUAUGAAAAGUGACCCAGCACCUCAUCCGACAACAGAGGAUUGAGCAUCA
B13: chr4:149991449:149991450:+_ENSMUSG00000039852_ENSMUST00000105680|mus_mus|FALSE|FALSE (ssRNA)
RNA: GGGAGUUCUACAGUCCGACGAUCGCGCUCGGCUGCCAGUCUGUCUGGGUAACUCAUCUCAGGCCGCAGCUGAGGACCUGCUAGUGCCAGUCUCUCCCGCUCCAAAGGGUUGAGGCCCGGGUGGAAAGAGGCAAAGGGGUGGGGCAACAGAGGAUUGAGCAUCA
B14: chr12:89993059:89993060:-_ENSG00000070961_ENST00000261173|hu_hu|motif|central (ssRNA)
RNA: GGGAGUUCUACAGUCCGACGAUCAGGUAUUUCUUCCUUUUGUGUUCCAUGACCAGCUUCUUUGAGGAAUUUUAAACGGCGGGUUGGAAUUGUUGAAAUAAGCUGGCCCCAGAGUAAUGUUCCCAUUCCUAGGAAUAUUGACCACAACAGAGGAUUGAGCAUCA
B15: chr7:99056824:99056825:-_ENSG00000241468_ENST00000394186|hu_hu|motif|central (ssRNA)
RNA: GGGAGUUCUACAGUCCGACGAUCUCAGUGGUAUUUGCGGAGCCGCUCGUGCUUGAGAUGCUUGUAGGAAAAGGAGUAGCGGAAGAGCACGUAGCAUGCCAGCACCAUGGUAAUCCCCGAGAUGCUCCCCUUCUUCACAUUGAUCAACAGAGGAUUGAGCAUCA
B16: chr15:102110757:102110758:+_ENSMUSG00000045665_ENSMUST00000051341|mus_hu|FALSE|FALSE (ssRNA)
RNA: GGGAGUUCUACAGUCCGACGAUCGUAGGGGGCCUGAAGCCAAUCAGCUGCCAGGGCCAGGAAGUAGACCUGAUAGAAGUCCAGUUGAAACCGAAGGAAGGAGGGAUUGCUGCAGGCCCUUCCAGGGGGUUUAGCCCGGCAUCUCAACAGAGGAUUGAGCAUCA
B17: chr1:186721242:186721243:-_ENSMUSG00000026620_ENSMUST00000027929|mus_hu|motif|central (ssRNA)
RNA: GGGAGUUCUACAGUCCGACGAUCAAAAUAACAAGUAUUAAAAUGUACCUUUACUAGUGGUUUUACAUCGCAUAUAUCACGGAUUAUGAAAGAAAAGUAGGCAAAUGCCCAAUCACAAAGCGGCACAUUAUAGGCAUAAUGAUGCAACAGAGGAUUGAGCAUCA
B18: 92119036_92119156_3663_CDS_ENSG00000127980_ENST00000248633|human|control|control (ssRNA)
RNA: GGGAGUUCUACAGUCCGACGAUCGCUCCGGUAUCUGCCUUUGAUAAUACUGAUAUCUGCCCUCAGUUGAUCUCUUUGUUCUUGUGUAAGUUCUUGGCAACCCUCUUGUGAAGCUGUCCUUAACACUGGAGGCUGUGAAAACAACAACAGAGGAUUGAGCAUCA
B19: chr17:23954396:23954397:+_ENSMUSG00000039218_ENSMUST00000088621|mus_mus|FALSE|FALSE (ssRNA)
RNA: GGGAGUUCUACAGUCCGACGAUCCUCUUUUAAUUCAGAAGGCUCCAAUCUGCUCUGCACCAGAAAAGAUUUAGAGUCUACUAAAGGAUAUAUGCUAGAGUCAGGUUUAGUCUUACUCUGCUCAGGAGACAUUCCUGACUUCAGCAACAGAGGAUUGAGCAUCA
B20: chr5:138606049:138606050:-_ENSMUSG00000029730_ENSMUST00000000505|mus_mus|FALSE|FALSE (ssRNA)
RNA: GGGAGUUCUACAGUCCGACGAUCUAGCUCCUCAUAUUCAUCCAGAGCUGCCUGGAACUGGGCUGGUGUGAAGCCACGAGAUAUGCAGCGCUGUUCAGCCUCAGAAAAGUGGACACUCCGCCCCCGUGACACCAAUUCACGGAUCAACAGAGGAUUGAGCAUCA
B21: 99063032_99064229_1972_CDS_ENSG00000152767_ENST00000319562|human|control|control (ssRNA)
RNA: GGGAGUUCUACAGUCCGACGAUCUUCAAAAUUCGGGAAUAUGAGACUUUUCAGUGCUUCCGGCAUGGCGUCCUCUUUGCUCACUGUGCUCUGAAACCACGAAGUGAUAACUUCGAGAUCCUUCAGAUAUGUUCGCUCGGUGGUCAACAGAGGAUUGAGCAUCA
B22: chr19:29101771:29101772:-_ENSMUSG00000024782_ENSMUST00000025696|mus_hu|FALSE|FALSE (ssRNA)
RNA: GGGAGUUCUACAGUCCGACGAUCAGCAGUAAGGCGUUGUUUAAUGACCUCAAAGGGCACAUUCAGGUUAAUCACUGUGUCGAUCUGAUAAGCUCUAUCUAGGGCUUCUGCCUGUGGAAGUGUCCUUGGAAAACCAUCCAACAGCAACAGAGGAUUGAGCAUCA

These binders were tested against T1, UNK ZnF1-3 (assay: nsRBNS (natural sequence RNA bind-n-seq); RBNS binding buffer (assumed for nsRBNS): 25 mM Tris pH 7.5, 150 mM KCl, 3 mM MgCl2, 0.01% Triton X-100, 500 ug/ml BSA, 20 U/ml SUPERase-In, 4 C; UNK is unkempt and MSI1 is Musashi-1; names of the RNAs are library labels; protein concentration not given here; high values mean tight binding).

Row | Binder | binding signal [enrichment R]
1 | B1 | 1.07
2 | B2 | 0.824
3 | B3 | 0.686
4 | B4 | 2.81
5 | B5 | 1.24
6 | B6 | 1.2
7 | B7 | 1.12
8 | B8 | 0.879
9 | B9 | 1.24
10 | B10 | 0.371
11 | B11 | 0.608
12 | B12 | 1.3
13 | B13 | 0.994
14 | B14 | 0.64
15 | B15 | 1.16
16 | B16 | 0.951
17 | B17 | 0.878
18 | B18 | 0.665
19 | B19 | 0.571
20 | B20 | 0.852
21 | B21 | 0.575
22 | B22 | 0.591
